# In paper PMC12820563, “FoxP3 forms a head-to-head dimer in vivo and stabilizes its multimerization on adjacent microsatellites”:
# This is one part of the list.
# Biological target: T1, MBP-FoxP1dN (Mus musculus, UniProt P58462 326-579)
# T1 sequence: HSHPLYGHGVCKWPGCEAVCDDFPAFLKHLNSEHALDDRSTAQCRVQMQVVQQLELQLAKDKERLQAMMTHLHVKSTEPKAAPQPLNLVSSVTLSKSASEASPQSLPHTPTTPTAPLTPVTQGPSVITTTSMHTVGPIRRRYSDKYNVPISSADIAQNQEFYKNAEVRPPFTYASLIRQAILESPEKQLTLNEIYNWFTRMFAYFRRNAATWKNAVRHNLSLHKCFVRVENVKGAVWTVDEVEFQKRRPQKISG
# Assay: PD-seq (MBP pull-down with sequencing); 20 mM Tris-HCl pH 7.5, 100 mM NaCl, 1.5 mM MgCl2, 0.4 uM protein, 0.1 uM dsDNA library, 30 min, room temperature, amylose pull-down; high values mean tight binding
# Conditions: protein: recombinant; tags: His6-MBP; chain copies: 2; dsDNA, one strand shown
# Method in brief: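 Binding is the reads-per-million enrichment of pull-down relative to input, pooled across replicates. For this, 0.4 µM His6-MBP-tagged mouse FoxP3 or FoxP1 fragment lacking the N-terminus, made in E. coli, was incubated with 0.1 µM Klenow-filled double-stranded degenerate DNA library for 30 min at room temperature in Tris pH 7.5 buffer with NaCl and MgCl2. Complexes bound to amylose resin were washed three times before proteinase K released the DNA for PCR barcoding and Illumina sequencing.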
row,Sequence,binding signal
1,GATGATTGTTCTCCCAGCTGATGAATTCCTCTCCTCGAGTAAACAAATTTTCCTAATCTTTCTGTTCAAGCGCCATCTAC,0.67 RPM ratio (pull-down/input)
2,GATGATTGTTCTCCCAGCTGATGAATTTGTGTAATCGAGTAAACAAATTTTCCTAATCTTTCTGTTCAAGCGCCATCTAC,1.97 RPM ratio (pull-down/input)
3,GATGATTGTTCTCCCAGCTGATGAATTCTTGAGATCGAGTAAACAAATTTTCCTAATCTTTCTGTTCAAGCGCCATCTAC,0.825 RPM ratio (pull-down/input)
4,GATGATTGTTCTCCCAGCTGATGAATTTATCACTTCGAGTAAACAAATTTTCCTAATCTTTCTGTTCAAGCGCCATCTAC,1.13 RPM ratio (pull-down/input)
5,GATGATTGTTCTCCCAGCTGATGAATTAACGACGTCGAGTAAACAAATTTTCCTAATCTTTCTGTTCAAGCGCCATCTAC,0.864 RPM ratio (pull-down/input)
6,GATGATTGTTCTCCCAGCTGATGAATTGCGCTACTCGAGTAAACAAATTTTCCTAATCTTTCTGTTCAAGCGCCATCTAC,1.08 RPM ratio (pull-down/input)
7,GATGATTGTTCTCCCAGCTGATGAATTAAGCTCGTCGAGTAAACAAATTTTCCTAATCTTTCTGTTCAAGCGCCATCTAC,0.813 RPM ratio (pull-down/input)
8,GATGATTGTTCTCCCAGCTGATGAATTCAGACTATCGAGTAAACAAATTTTCCTAATCTTTCTGTTCAAGCGCCATCTAC,0.864 RPM ratio (pull-down/input)
9,GATGATTGTTCTCCCAGCTGATGAATTCTTTTGGTCGAGTAAACAAATTTTCCTAATCTTTCTGTTCAAGCGCCATCTAC,1 RPM ratio (pull-down/input)
10,GATGATTGTTCTCCCAGCTGATGAATTTCTGGCTTCGAGTAAACAAATTTTCCTAATCTTTCTGTTCAAGCGCCATCTAC,0.839 RPM ratio (pull-down/input)
11,GATGATTGTTCTCCCAGCTGATGAATTGCACTAGTCGAGTAAACAAATTTTCCTAATCTTTCTGTTCAAGCGCCATCTAC,1.12 RPM ratio (pull-down/input)
12,GATGATTGTTCTCCCAGCTGATGAATTCCCGGTATCGAGTAAACAAATTTTCCTAATCTTTCTGTTCAAGCGCCATCTAC,0.838 RPM ratio (pull-down/input)
13,GATGATTGTTCTCCCAGCTGATGAATTCTTTTCCTCGAGTAAACAAATTTTCCTAATCTTTCTGTTCAAGCGCCATCTAC,0.876 RPM ratio (pull-down/input)
14,GATGATTGTTCTCCCAGCTGATGAATTTGTAATATCGAGTAAACAAATTTTCCTAATCTTTCTGTTCAAGCGCCATCTAC,1.36 RPM ratio (pull-down/input)
15,GATGATTGTTCTCCCAGCTGATGAATTGCCCCGTTCGAGTAAACAAATTTTCCTAATCTTTCTGTTCAAGCGCCATCTAC,0.921 RPM ratio (pull-down/input)
16,GATGATTGTTCTCCCAGCTGATGAATTAGATTTATCGAGTAAACAAATTTTCCTAATCTTTCTGTTCAAGCGCCATCTAC,1.13 RPM ratio (pull-down/input)
17,GATGATTGTTCTCCCAGCTGATGAATTGTCGATCTCGAGTAAACAAATTTTCCTAATCTTTCTGTTCAAGCGCCATCTAC,0.951 RPM ratio (pull-down/input)
18,GATGATTGTTCTCCCAGCTGATGAATTCCGGACCTCGAGTAAACAAATTTTCCTAATCTTTCTGTTCAAGCGCCATCTAC,0.757 RPM ratio (pull-down/input)
